Here are results for 44 sequences from the supplement of paper PMC11417369.

± gives the standard deviation of the averaged measurements. The list shows a part of the results.

The assay has as its system PfAP2-I AP2 domain 3 (GST-tagged). Briefly: gcPBM binding intensity (ln(normalized median fluorescence intensity)); higher = stronger DNA binding. In short, it runs like this:
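In this array assay, P. falciparum DNA-binding domains with a GST tag, expressed in E. coli, were applied for 1 h to primer-extended double-stranded 36-bp intergenic genomic probes and negative controls on an Agilent 4 × 180k array. Bound protein was visualised with Alexa488 anti-GST antibody at 488 nm. Binding intensity is the highest Masliner-normalised natural-log median intensity across replicate spots of either probe orientation.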
Regarding “TAATCCATAAGAAGCACACACATATATATATATTTT [CACACA_site1399]”, the “gcPBM binding intensity (ln)” value amounted to 7.84 ± 0.42.

As to “TATTAATTATTATGACATACATATCAGTTATTAAAA [CACACA_negctrl_site600]”, the “gcPBM binding intensity (ln)” value worked out at 7.53 ± 0.31.

Regarding “TAATGGAGAAAAAAAAAACACACGGTACATTCAAAG [CACACA_site3117]”, the “gcPBM binding intensity (ln)” value is 7.83 ± 0.84.

For the sequence “AAGGGAAAATAATAAAAGAAAAAGAAAAAAAAAAAA [CACACA_negctrl_site1518]”, the “gcPBM binding intensity (ln)” value is 7.97 ± 1.

In the case of “TATATATATATATATTGTACTTTATATGTTCTTATA [XGTACX_site7545]”, the “gcPBM binding intensity (ln)” value stood at 9.46 ± 0.45. In the case of “AAATATTACATTTGTTAAATAATATGTTATACATAA [XGTACX_negctrl_site484]”, the “gcPBM binding intensity (ln)” value stood at 7.32 ± 0.54. With “TTTTATAAAGGAAAAGCATGCAGACTAAAAGATCAT [TGCATGCA_site150]”, the “gcPBM binding intensity (ln)” value worked out at 8.93 ± 0.12.

Turning to “TTATAATCTTTTGGTTCTATAGAATATCAAAAAATA [CACACA_negctrl_site1149]”, the “gcPBM binding intensity (ln)” value was determined as 7.43 ± 0.47.

As for “TTTTTAAAAAAATTGATTCTTTTTCTTTTTTTTCTT [XGTACX_negctrl_site127]”, the “gcPBM binding intensity (ln)” value was 7.07 ± 0.8. Take “TTTTTTGCTTGGGTGAGAAAAAATAAAATAAAGGAA [TGCATGCA_negctrl_site139]”: the “gcPBM binding intensity (ln)” value is 8.12 ± 0.32. For “TATTATTGTCATTTTTTTTTTTTTTTTTTCTATTTC [XGTACX_negctrl_site114]”, the “gcPBM binding intensity (ln)” value is 7.43 ± 0.38.

Take “AAAAAATAAAAGGAAAAAAAAAAAAAAAAAAAAAAT [CACACA_negctrl_site635]”: the “gcPBM binding intensity (ln)” value worked out at 7.51 ± 0.57. Turning to “ATTTATACAAAGCTTCGTACATAATGTATTCTTTTT [XGTACX_site2166]”, the “gcPBM binding intensity (ln)” value is 7.57 ± 0.64. With “TTTTAATTGTTTATTTGTACATATGTTTAATTATAT [XGTACX_site571]” the figure was 7.79 ± 0.49; with “TTATTAAAAATGTATTGTACAAATTTATTAGTAAAT [XGTACX_site4799]”, 7.66 ± 0.31. As to “TTTATATTTTAAAAAATAATATTATGTATTTTTAAA [TGCATGCA_negctrl_site507]”, the “gcPBM binding intensity (ln)” value was determined as 7.21 ± 0.22. For the sequence “GTACTTATTAAATGTGCATGTTGATATATAAATGTA [TGCATGCA_site902]”, the “gcPBM binding intensity (ln)” value was found to be 8.23 ± 0.57. With “TTTAATATATATATGTGTACATATAAATTATATATA [XGTACX_site8511]” the figure was 7.695 ± 0.035; with “ATATACATAAAAATATGTACATATAAAATATATACA [XGTACX_site2394]”, 7.76 ± 0.12; with “ATATAATAAACGTGTACACAATTAAATTATTATATA [CACACA_site5017]”, 8.59 ± 0.13. As for “TAGACTCCCAGACACACACACACACCCATATAATAT [CACACA_site593]”, the “gcPBM binding intensity (ln)” value is 7.94 ± 0.35. With “TATTATTATTGTTGATGTACATTTAATATAATATAT [XGTACX_site4482]”, the “gcPBM binding intensity (ln)” value stood at 7.7 ± 0.38. Turning to “TTTTTTTTTTTTGGTGCATGCACATTTTGTTTTTTT [TGCATGCA_site570]”, the “gcPBM binding intensity (ln)” value turned out to be 9.85 ± 0.014. In the case of “TGAATAAAAAAACCTAGTACTTAAATAAGTATATTT [XGTACX_site7690]” it was 7.4 ± 0.61; in that of “TATATATTTATATTTACACACAGTTACTATGTAGAT [CACACA_site3292]”, 7.66 ± 0.57; in that of “ATTAAATGATCAAGGTGTACATTAACAAGAACTATA [XGTACX_site7022]”, 8.06 ± 0.31. Regarding “TAAAAAAAATAGAAACGTACATAAAAAATAAATAAT [XGTACX_site5796]”, the “gcPBM binding intensity (ln)” value was 8.05 ± 0.59.

For “TATATATATACATACGTACACACAAATATTAAAATA [CACACA_site1950]”, the “gcPBM binding intensity (ln)” value turned out to be 8.77 ± 0.28. As for “TATATTTATATATGTTGTACTCTCCAATAATATTCC [XGTACX_site4438]”, the “gcPBM binding intensity (ln)” value worked out at 7.67 ± 0.48. With “TCATATAAAACATGCACACATATGTACTCTTATAAA [CACACA_site3748]”, the “gcPBM binding intensity (ln)” value was 8.57 ± 0.42.

With “TTTATTAATGGACACACACACACACCCAAAATAAAA [CACACA_site4294]”, the “gcPBM binding intensity (ln)” value was found to be 8.28 ± 0.26. As to “TTGTATCTTCATTTTATCAGAAAAAAAAAAAAAAAT [CACACA_negctrl_site775]”, the “gcPBM binding intensity (ln)” value stood at 7.55 ± 0.33.

On to “ATATATATATATAGGGGTACTTAAATTTTACTAACC [XGTACX_site1832]”, for which the “gcPBM binding intensity (ln)” value was determined as 9.46 ± 0.23. In the case of “ATTTTATTTATATACACACACATATATATATTATAT [CACACA_site822]” it was 8.01 ± 0.59; in that of “AATAAATAAATAAATTAATATATATATATATATAGA [CACACA_negctrl_site1661]”, 7.46 ± 0.49; in that of “AAAGGGTTACAAGAGGAACACACAAAAAAATAAATA [CACACA_site8406]”, 7.93 ± 0.48. In the case of “TTTTGCGAAAAAAGGTGTACTGTAAATATATTGAGG [XGTACX_site8941]”, the “gcPBM binding intensity (ln)” value is 8.35 ± 0.35.

“AGCACCCACCAACACACACACACACCCACCCACCGA [CACACA_site368]”: the “gcPBM binding intensity (ln)” value stood at 8.18 ± 0.13. Regarding TTTTTTTTGATTTGTTTGCACTTATTTCCACAATAA, the “gcPBM binding intensity (ln)” value is 10.1 ± 0.11. Turning to “TTTTTTTTTAATTACATAAAATAAAAATATTTCTAT [CACACA_negctrl_site584]”, the “gcPBM binding intensity (ln)” value is 7.47 ± 0.67. For the sequence “TTAATATGTTTAACCATTTTACATAAATTGATTTGT [CACACA_negctrl_site1100]”, the “gcPBM binding intensity (ln)” value was 7.53 ± 0.42. Consider “TACGTAAATTTTAATACACACTATAGGATATTCTGC [CACACA_site5418]”, for which the “gcPBM binding intensity (ln)” value came to 7.65 ± 0.55.

For “AAATAAATAAATATACGTACATATATATAATATATA [XGTACX_site5124]”, the “gcPBM binding intensity (ln)” value was 7.78 ± 0.13. On to “TAATAATAATACCAGCGTACATTTTTCTTTCCTACG [XGTACX_site4056]”, for which the “gcPBM binding intensity (ln)” value was determined as 7.78 ± 0.71.
